The supplement of paper PMC11417369
Some of the results follow.

Tested on: PfAP2-HC AP2 domain (GST-tagged)
Assay: gcPBM binding intensity (ln(normalized median fluorescence intensity)); higher = stronger DNA binding
Procedure, shortened: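 An Agilent 4 × 180k array carrying primer-extended double-stranded 36-bp intergenic genomic probes and negative controls received GST-tagged P. falciparum DNA-binding domains expressed in E. coli, about 25 μg on average, for 1 h. The binding buffer contained 1× PBS, 1% milk, 0.2 mg/ml BSA, 0.5% salmon testes DNA and 0.03% Triton X-100. Binding intensity is the top Masliner-normalised natural-log median intensity across replicate spots of either probe orientation, read after Alexa488 anti-GST antibody staining and a 488 nm scan.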

Sequence | gcPBM binding intensity (ln)
AAACAATTTGGGTGTACACATGATACGTTCGATGAG [CACACA_site5160] | 9.84
ATATTATACATTTATACACACATAAAAAGACAAAAA [CACACA_site3565] | 9.92
ATAACCTAATAATACACACACATGAATATAAATAAC [CACACA_site6584] | 10.2
ATATATATTTTATACGCATGTAATTATTATGTGGTC [TGCATGCA_site45] | 9.76
TATATTAAACAATATACACACATTAATGTATCCATA [CACACA_site5523] | 9.74
TTATATATATATATATGTACACATATATAACATGAT [XGTACX_site6643] | 9.65
TGTAATATTTTTCATGCATGCTCTTCTTTTACATAA [TGCATGCA_site144] | 10.2
ATAATTTATATTACTTGTACATATTTATATGAACGA [XGTACX_site3610] | 9.61
AAAATTAAAAATAACACACACATATTTATATTTATA [CACACA_site7329] | 10.5
AAGGAGAAATATTGCACACGTGCAAAATGGTATGAG [CACACA_site259] | 10.3
TATTCTTTTATGAATACACACATATACGAAAATATT [CACACA_site6585] | 9.55
CTTAATTTTTTTTAATGTACATACATATAAACCTTT [XGTACX_site2233] | 9.67
AGTTATATGTACTACACACGTACACAAAATAAGATA [CACACA_site3719] | 9.87
AAAAGGTTATCAAAATGTACGAAATGTTACAAAAAT [XGTACX_site6215] | 9.67
AGGTGTCATAGATGCACACAAAAGTAACACGCACCT [CACACA_site4418] | 9.84
AAATGTTAAAAAGAGAAAAACAATAAAAAACAATTA [CACACA_negctrl_site1044] | 9.74
ATATGCTATTAATTATGTACATATATATATATATAT [XGTACX_site4901] | 9.82
GTACATTATATATATACACACATACATAATAAAGAA [CACACA_site5528] | 10.1
GGACTATACAGTTATACACACACATATATATATAAT [CACACA_site7991] | 10.1

Sequence | gcPBM binding intensity (ln)
ACTACGTGTCAAAAATATTAATTACAAATGAATAAA [GTGCAC_negctrl_site248] | 9.52
TATTAATATATAGTAGTGCAATAAAGATATACTGAA | 9.74
AACATACTCACGAACATACACACGGACATACATACG [CACACA_site603] | 10.1
ATGCATACACTTATATGTACACATTTACATATTATT [XGTACX_site2841] | 10.1
AATAAATAAATATATTGTACATATATATATATATAT [XGTACX_site8627] | 9.63
CGAAAGGAAATATAACGTACATAAGATTATATTCAC [XGTACX_site3868] | 9.66
ATGAACAAGGGGCACACACACATTATGACTAATTTA [CACACA_site3204] | 10.2
TATTAAAAGAAAAAAAAAAAAAAATTAATACATATA [XGTACX_negctrl_site582] | 9.36
AAAACAAACGGACACACACACATATATATATATATA [CACACA_site5924] | 10.5
ACATGTAAATTTACATGTACATGTAACACTTAATAT [XGTACX_site4575] | 9.74
TAATATTTTAATTGTGTGCACATTAATATTATAAAA | 9.64
TTTAGTGAGTTTGTTGTGCACTGAAAAAATTACAAT | 9.48
TATATTATTTTTTGTGGTACATGTATTTTTACCTAA [XGTACX_site4348] | 9.71
TACATATTTACTATCACACACACGATATATATAAAT [CACACA_site1242] | 10.5
ATACGAAAAAATAGACGTACTATGAAATAATAATTT [XGTACX_site8387] | 9.8
TACTTAAAAAAAAAAAAAATAAATATTATGTATTAT [CACACA_negctrl_site138] | 9.36
AATATTTTAAAAAAATGTACTTTTAACCCTTATTGG [XGTACX_site3490] | 9.26
TATAAAATATAAATTTGTACATATAAAATATTTTAT [XGTACX_site7462] | 9.34
TTTTTTAAAATATAAAATATGTACAAATATGTTGAA [GTGCAC_negctrl_site379] | 9.4

Sequence | gcPBM binding intensity (ln)
TAATAGTTATAAAATACACACCAGGCATGATAAATG [CACACA_site4335] | 9.82
TATATATATATACATACATATAAAGTTACATAAACA [CACACA_negctrl_site432] | 9.67
GAACAAACAAAGAAAGAACACACATACACAATATAC [CACACA_site8918] | 10.8
TAGATTTTTTTACATTGTACATATTTTTTCTTATAG [XGTACX_site293] | 9.8
ATATATGGGTAGTATACACACTGTATATTTAGGAAT [CACACA_site7357] | 9.91
GTATGAAAAAAATATGCATGCTAAATAATAAATGTT [TGCATGCA_site352] | 9.76
ATCATTTTTATAAATTGTACAAATATTTTTTATACA [XGTACX_site7551] | 9.48
TTATATAAATATAAGGTGCTGGGGTTTATTACATAT [GTGCAC_site9909] | 10.4
ATATCGCACGTTTGAAGTACATAAAAACGATTAATA [XGTACX_site7684] | 9.52
CACCAATTCATATGCACACACATCTGCATATTATAG [CACACA_site6925] | 9.98
CATATTATTTATATTTGTACACAGCGATATGAAATA [XGTACX_site7717] | 9.67
CTTACATAAAATATCACACACATAAAAAAACAATAT [CACACA_site1901] | 10.4
TATATATATATATATGTGCACATATATATGATATTA | 9.58
ATATTTTATACTTGCACACAAAATATATTAGAATGT [CACACA_site1985] | 9.88
GAAATCTAATTTATTACACACATTTGAAAAAAATTC [CACACA_site6640] | 9.58
TTATATTTTTTTGAGTGTACTTTTTGTGTAAAATTC [XGTACX_site2155] | 9.47
ACCCATTTTTGTTGTTCTATATATTCGTGAATCATT [CACACA_negctrl_site614] | 9.79
AATTTTTTGAATAATTGTACATATTTGGTTAAATAT [XGTACX_site3612] | 9.58
TTACTAAGAAGGATTTATTTTATAAAAATATTTATT [XGTACX_negctrl_site549] | 9.43
